The whole screen tested about 420,000 compounds, of which about 64,000 (15%) were called active. The inconclusive results got no clear call from the source; some entries with a clear call stand among them for comparison. The call rests on the fitted dose curve; in most records, active means well fitted inhibition curve with a large enough effect; inconclusive means small, poorly fitted or top-dose-only effect; inactive means flat fitted curve, though single readings scatter. No potency is given beside an inconclusive call; the fits are too rough.
Test: qHTS for Inhibitors of human tyrosyl-DNA phosphodiesterase 1 (TDP1): qHTS in cells in absence of CPT; further: nearly all actives have a fitted effect of over 55% in size
Settings: DT40 Tdp1-/- hTDP1 cells, no CPT, ATP luminescence, 48 h; activity change, negative = growth inhibition: at 46.2 µM (top of the series) unless noted
How it was run: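 Growth kinetics read by CellTiter-Glo luminescence after ≥48 hr at 37 °C. Cells: DT40 Tdp1-/- stably carrying human TDP1, 400 per well, compound exposure in the absence of CPT (DMSO vehicle).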
On the % scale 0 is the no-effect control and ±100 the full control effect; potency means the concentration at half of the fitted maximal effect; tags describe the fitted curve by direction and shape.

Compound | Potency | activity change, negative = growth inhibition
COC(=O)c1ccc(CSc2nc3ccccc3c(=O)n2CC(C)C)o1 | inconclusive [inhibitor, single point] | 
O=C(NCCc1ccccc1)Nc1nnc([C@@H]2C[C@H](O)[C@@H](CO)O2)s1 | inactive | 
Cc1ccccc1N1CC(C(=O)Nc2ccc3c(c2)OCO3)CC1=O (stereo unspecified) | inactive | 
O=C(O)c1ccc(N/N=C2/CCSc3ccc(F)cc32)cc1 | inactive | 
CNC(=O)C1CCC(Cn2c(=O)[nH]c3ccsc3c2=O)CC1 (stereo unspecified) | inactive | 
CCOC(=O)c1ccc(N2C(=O)c3n[nH]c(C)c3C2c2ccc(C(C)(C)C)cc2)cc1 (stereo unspecified) |  | inconclusive: -30.4% [inhibitor]
N#Cc1c(NC(=O)CSc2nc(N)cc(=O)[nH]2)sc2c1CCCCCC2 | inconclusive [inhibitor, partial curve] | 
N#CCC1c2ccccc2CCN1C(=O)Nc1ccc(C(F)(F)F)cc1 (stereo unspecified) |  | inconclusive: -30.1% [inhibitor]
CC(C)(C)c1nnc(N/N=C/c2ccc(Br)cc2)n(N)c1=O | inconclusive [inhibitor, single point] | 
Cc1nnc(SCC(=O)N/N=C/c2ccc(-c3ccc(C)c(Cl)c3)o2)s1 | inconclusive [inhibitor, single point] | 
C#CCCOC(=O)N1C2=NC(C(=O)OC)=C(C(=O)OC)[C@@H]3N(CC=C)c4ccccc4[C@]23C[C@H]1C(=O)OC | inconclusive [inhibitor, single point] | 
CN(Cc1ccccc1)c1nc(N)nc(Cl)c1C=O | inconclusive [inhibitor, partial curve, poor fit] | 
O=c1cnc2cnc(OCc3ccccc3)nc2n1CCc1ccccc1 | inconclusive [inhibitor, single point] | 
O=C(CN1C(=O)C(=O)N(Cc2ccccc2)C1=O)Nc1ccc(F)c(Cl)c1 | inactive | 
COc1ccc2nc(N3C(=O)CNC3=S)sc2c1 | active: 7.31 µM | 
COc1cccc(-c2ncc3ccccc3c2COC(=O)c2cccc(Br)c2)c1 | inconclusive [inhibitor, single point] | 
O=C(NC1c2ccccc2Oc2ccccc21)c1ccc([N+](=O)[O-])cc1 | inactive | 
CCOC(=O)C1CCN(C(=S)Nc2ccccc2)CC1 | inactive | 
Cc1cn2c(=O)c(C(=O)N3CCN(c4ccccc4F)CC3)cnc2s1 | inactive | 
NC(=O)c1c(NC(=O)c2ccc(N3C(=O)CCC3=O)cc2)sc2c1CCCC2 | inactive | 
C[C@H](CCC(=O)NCCS(=O)(=O)O)C1CC[C@H]2C3CC[C@@H]4C[C@H](O)CC[C@]4(C)C3C[C@H](O)[C@]12C (stereo partly specified) | inactive | 
COc1ccccc1N1CCN(/N=C/c2cc([N+](=O)[O-])ccc2Cl)CC1 | inactive | 
N#CC(C#N)=C1C=CC=CN1/C(=C\c1ccco1)C(=O)c1ccccc1 | active: 1.46 µM | 
CC(=O)Oc1ccc(/C=C(\NC(=O)c2ccco2)C(=O)NCc2ccco2)cc1 | inactive | 
COc1ccc(NC(=O)C2=Cc3cccc(OC)c3OC2)cc1 | inconclusive [inhibitor, single point] | 
CSc1ccc(CNc2ncc(-c3ccccc3)n2C)cc1 | active: 18.4 µM | 

Compound | Potency | activity change, negative = growth inhibition
CCOC(=O)c1cccc(NC(=O)c2cc(CN3CCOCC3)on2)c1 | inactive | 
CN1c2ccccc2-c2nc3ccccc3n2C1c1ccncc1 (stereo unspecified) | inconclusive [inhibitor, partial curve, poor fit] | 
COc1ccccc1CNC(=O)Cc1ccc(Br)cc1 | inconclusive [inhibitor, single point] | 
Cc1ccc(-c2nnn3c2nc(Cl)c2ccccc23)cc1 | active: 4.61 µM | 
Cc1noc(C)c1-c1cncnc1-n1ccnc1 | inactive | 
COCCN=C1N[C@@H](c2ccccc2)C(C(=O)OC)=C(C)N1Cc1ccccc1 | active: 23.1 µM | 
CCOC(=O)c1ccc(NC(=O)COCc2cc(-c3ccc4c(c3)OCO4)on2)cc1 | inactive | 
CCN1CCCC1CN=Cc1c(O)n(-c2ccccc2)c(=O)c2ccccc12 (stereo unspecified) | inactive | 
COc1ccccc1CNc1nc(SC)ncc1CO | inconclusive [inhibitor, single point] | 
O=C(NCc1ccncc1)C(=O)Nc1nc(C23CC4CC(CC(C4)C2)C3)cs1 | active: 20.6 µM | 
O=C1NC[C@@H](Cc2ccc(O)cc2)N(CCCCC2CCCCC2)C1=O | inconclusive [inhibitor, single point] | 
C=CCN(C(=O)Nc1ccc(Cl)cc1)C1CC(=O)N(c2ccc(OC)cc2)C1=O (stereo unspecified) | inactive | 
COc1ccc(CCNC(=O)COC(=O)c2ccc([N+](=O)[O-])o2)cc1 | inactive | 
CC(=O)Oc1ccccc1Cn1c(C)c(C(=O)NCc2ccccc2C(F)(F)F)sc1=O | inconclusive [inhibitor, single point] | 
Cc1ccc(NC(=O)/C(C#N)=C/c2cc(C)n(-c3ccc(N4CCOCC4)c([N+](=O)[O-])c3)c2C)c(C)c1 | active: 8.2 µM | 
Clc1ccc(-c2nc3ccccn3c2CN2CCSCC2)cc1 | inconclusive [inhibitor, partial curve] | 
O=C(Nc1ccc(C(=O)N2CCC(N3CCOCC3)CC2)cc1)c1ccc(Br)o1 | inactive | 
CCN(CC)S(=O)(=O)c1ccc(C(=O)Nc2nc3c(Cl)cc(Cl)cc3s2)cc1 | active: 16.4 µM | 
N/C(Cc1nc2ccccc2s1)=N\O | inactive | 
O=C1CN(C(=O)c2ccccc2F)C(c2ccccc2)c2cc(Cl)ccc2N1 (stereo unspecified) | inactive | 
COC(=O)c1ccc(NS(=O)(=O)c2cc3c4c(c2)CCC(=O)N4CCC3)cc1 | inconclusive [inhibitor, single point] | 
CN1CCN(c2ccccc2NC(=O)c2ccc([N+](=O)[O-])cc2Cl)CC1 | inactive | 
O=C(NC1CCCC1)C(c1ccccc1)N(Cc1ccco1)C(=O)Cc1cccs1 (stereo unspecified) | inconclusive [inhibitor, single point] | 
COc1cccc(CCNC(=O)CCc2nnc(-c3cc(C)oc3C)o2)c1 | inactive | 
Cc1ccc(S(=O)(=O)NCC(=O)N(CC2CCCO2)C(C(=O)NC2CCCC2)C(C)C)cc1 (stereo unspecified) | inactive | 
